Consider six molecules from article PMC12749008.

Protein sequences, listed by entry. Tags and fused reporters are not part of them. Lines headed by an entry give the natural chain unless they say otherwise; changes in a name come on top.
UniProt Q9UHY1: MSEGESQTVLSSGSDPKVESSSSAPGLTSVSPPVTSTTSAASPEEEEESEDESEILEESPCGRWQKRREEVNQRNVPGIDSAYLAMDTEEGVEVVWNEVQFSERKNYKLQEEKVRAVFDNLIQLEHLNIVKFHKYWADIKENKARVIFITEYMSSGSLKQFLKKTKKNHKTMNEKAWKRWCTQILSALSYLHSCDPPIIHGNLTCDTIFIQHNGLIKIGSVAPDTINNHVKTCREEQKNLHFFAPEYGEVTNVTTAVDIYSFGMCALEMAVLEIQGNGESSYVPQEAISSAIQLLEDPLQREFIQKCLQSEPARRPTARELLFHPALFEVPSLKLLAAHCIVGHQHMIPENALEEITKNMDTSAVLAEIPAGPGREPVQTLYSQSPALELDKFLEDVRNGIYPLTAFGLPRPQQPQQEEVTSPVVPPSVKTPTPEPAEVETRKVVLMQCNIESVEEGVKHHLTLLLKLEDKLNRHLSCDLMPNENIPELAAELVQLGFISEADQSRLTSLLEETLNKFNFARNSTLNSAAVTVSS

These are yes or no findings as the source states them, for the method shown. Binding seen in cells or lysates may run through a third protein. Some binding calls cover weakened binding; strength is not graded here.

The target of experiment [1] is T1, TRIM24 in HEK293T cells (human (HEK293T cells; endogenous or transfected not told)) (UniProt O15164).
T1 sequence: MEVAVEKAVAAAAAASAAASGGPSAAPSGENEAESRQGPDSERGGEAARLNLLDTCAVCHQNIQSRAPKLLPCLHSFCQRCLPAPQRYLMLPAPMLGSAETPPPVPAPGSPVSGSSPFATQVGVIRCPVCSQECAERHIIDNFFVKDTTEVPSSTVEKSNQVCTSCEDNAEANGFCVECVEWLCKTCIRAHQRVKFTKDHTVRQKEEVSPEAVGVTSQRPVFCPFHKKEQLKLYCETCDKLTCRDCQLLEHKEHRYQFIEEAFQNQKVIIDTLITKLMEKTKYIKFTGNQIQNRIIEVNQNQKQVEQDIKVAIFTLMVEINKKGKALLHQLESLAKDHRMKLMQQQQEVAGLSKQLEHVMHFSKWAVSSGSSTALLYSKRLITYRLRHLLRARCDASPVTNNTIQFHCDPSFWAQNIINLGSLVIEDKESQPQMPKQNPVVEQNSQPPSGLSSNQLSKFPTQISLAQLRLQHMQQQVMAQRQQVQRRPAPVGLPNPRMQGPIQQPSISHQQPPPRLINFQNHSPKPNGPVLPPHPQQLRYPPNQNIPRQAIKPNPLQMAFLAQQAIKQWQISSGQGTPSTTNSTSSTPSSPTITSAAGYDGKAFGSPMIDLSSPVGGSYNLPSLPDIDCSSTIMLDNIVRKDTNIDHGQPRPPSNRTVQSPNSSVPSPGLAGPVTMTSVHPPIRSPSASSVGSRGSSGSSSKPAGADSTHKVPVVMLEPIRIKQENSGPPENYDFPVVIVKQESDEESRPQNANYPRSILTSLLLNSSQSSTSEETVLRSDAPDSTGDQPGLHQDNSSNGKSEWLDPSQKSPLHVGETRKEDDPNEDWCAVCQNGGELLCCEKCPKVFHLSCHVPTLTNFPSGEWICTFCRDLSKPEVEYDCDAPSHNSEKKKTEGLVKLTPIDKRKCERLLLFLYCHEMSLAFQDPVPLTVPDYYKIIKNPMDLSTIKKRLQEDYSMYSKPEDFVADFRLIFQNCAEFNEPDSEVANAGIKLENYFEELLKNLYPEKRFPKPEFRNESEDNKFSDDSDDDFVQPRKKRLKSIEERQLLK
The experiment can be described thus: co-IP; HEK293T cells transfected with His-NRBP1 full-length or truncation plasmids; immunoprecipitation and western blot; which partner was precipitated is not told; a CK1 inhibitor (D4476, 6 h) is said to weaken the interaction of TRIM24 and NRBP1 in HEK293T.

Experiment [2] concerns the target T2, TRIM24 (Tripartite motif-containing 24) (human (endogenous in MKN74 and NUGC3)) (UniProt O15164).
T2 sequence: T1 sequence
The experiment can be described thus: co-IP; endogenous proteins; MKN74 and NUGC3 cell lysates incubated overnight at 4 °C with anti-TRIM24 or anti-NRBP1 antibody or control IgG, then 2 h with protein A/G magnetic beads; immunoblot.

Experiment [3] concerns the target NRBP1 (nuclear receptor binding protein 1) (human (endogenous in MKN74 and NUGC3)) (UniProt Q9UHY1). The experiment is described as above.

For the molecule “NRBP1(1-67) (from UniProt Q9UHY1 1-67) (domain or fragment)”, the binding entry in experiment [1] is “no binding”.

“NRBP1 (nuclear receptor binding protein 1) (from UniProt Q9UHY1 1-535)”: the binding result in experiment [2] is “binds”.

“NRBP1(1-327) (from UniProt Q9UHY1 1-327) (domain or fragment)”: the binding result in experiment [1] is on record as “no binding”.

For “NRBP1(327-443) (from UniProt Q9UHY1 327-443) (domain or fragment)”, the binding result in experiment [1] is “binds”.

In the case of “full-length NRBP1 (His-NRBP1) (from UniProt Q9UHY1 1-535)”, in experiment [1], the binding result is reported as “binds”.

B1: TRIM24 (Tripartite motif-containing 24) (protein, UniProt O15164 1-1050)
chain: T1 sequence
On to B1, for which the binding result in experiment [3] is reported as “binds”.
